# PubChem BioAssay AID1645882 (National Center for Advancing Translational Sciences (NCATS), 2021)
# The campaign covered roughly 16,000 compounds. About 120 (0.75%) were called active. Inconclusive results (about 4%) are left out. Calls follow the shape of the dose curve; as a rule, active = well fitted inhibition curve with a large enough effect; inconclusive = small, poorly fitted or top-dose-only effect; inactive = no such curve, though single readings can be large or run the other way. The list shows a part of the results.
# Target: Rap guanine nucleotide exchange factor 3 (Homo sapiens) (UniProt O95398)
# Sequence of UniProt O95398 (O95398 whole entry, looked up): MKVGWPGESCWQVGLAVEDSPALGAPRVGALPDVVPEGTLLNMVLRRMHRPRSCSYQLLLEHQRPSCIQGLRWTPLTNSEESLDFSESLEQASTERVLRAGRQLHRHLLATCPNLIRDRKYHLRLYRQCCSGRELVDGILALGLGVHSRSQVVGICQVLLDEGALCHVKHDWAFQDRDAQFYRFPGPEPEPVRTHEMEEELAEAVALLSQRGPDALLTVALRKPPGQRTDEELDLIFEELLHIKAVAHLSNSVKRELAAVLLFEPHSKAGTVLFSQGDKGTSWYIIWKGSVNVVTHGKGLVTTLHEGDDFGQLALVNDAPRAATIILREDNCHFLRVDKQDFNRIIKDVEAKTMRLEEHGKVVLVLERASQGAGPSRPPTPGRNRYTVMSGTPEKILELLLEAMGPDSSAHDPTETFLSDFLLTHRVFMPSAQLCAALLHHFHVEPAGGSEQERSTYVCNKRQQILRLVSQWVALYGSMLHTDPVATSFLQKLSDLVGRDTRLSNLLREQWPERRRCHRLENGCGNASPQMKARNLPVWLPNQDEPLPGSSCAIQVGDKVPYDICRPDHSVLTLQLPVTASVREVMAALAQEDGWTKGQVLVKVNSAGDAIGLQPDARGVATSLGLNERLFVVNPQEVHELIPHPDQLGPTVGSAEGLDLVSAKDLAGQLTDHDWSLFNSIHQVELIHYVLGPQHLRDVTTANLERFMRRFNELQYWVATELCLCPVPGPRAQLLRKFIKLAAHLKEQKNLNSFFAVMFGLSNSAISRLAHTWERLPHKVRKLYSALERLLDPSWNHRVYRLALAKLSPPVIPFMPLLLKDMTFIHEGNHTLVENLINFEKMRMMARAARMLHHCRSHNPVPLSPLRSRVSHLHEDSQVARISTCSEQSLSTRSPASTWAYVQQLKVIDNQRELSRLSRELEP
# Assay: Validation qHTS for antagonist of cAMP-regulated guanine nucleotide exchange factor 3 (EPAC1); also: nearly all actives have a fitted effect of over 75% in size;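 as to activity change, negative = inhibition: plate controls were DMSO for no effect and ATA control for full effect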
# Conditions: EPAC1 Rap1B-BODIPY-GDP exchange, fluorescence; series mostly up to 150 µM; activity change, negative = inhibition: at the top concentration
# Method in brief: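 Nucleotide exchange followed as fluorescence loss when BODIPY-GDP leaves Rap1B (480 nm excitation, 540 nm emission), read at 5 min intervals over 30 min. Reaction: 100 nM EPAC1, 250 nM RAP1B-BODIPY-GDP, 50 uM GDP; ATA and DMSO define normalization.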
# Potency is read from the fitted curve at half-maximal effect.
Compound,"activity change, negative = inhibition",Potency
COc1cccc(Cn2c(=O)c(C)nc3cnc(OCc4ccccc4)nc32)c1,inactive: -6.5%,
O=c1c(-c2ccc(F)cc2)nc2cnc(N3CCOCC3)nc2n1C[C@H]1CCCO1,inactive: 14.8%,
O=C(N[C@@H]1c2ccccc2C2(CCN(C(=O)c3ccc4c(c3)OCCO4)CC2)[C@H]1O)c1cccnc1,inactive: 1.07%,
COCCn1c(=O)c(-c2cccs2)nc2cnc(Oc3cccc(Cl)c3)nc21,inactive: 4.1%,
CCOC(=O)C12CC1/C(=N\O)c1ccccc1O2 (stereo unspecified),inactive: 10.2%,
N#Cc1cccc(-c2nc3cnc(Nc4ccccc4)nc3n(C[C@H]3CCCO3)c2=O)c1,inactive: 40.7%,
C=C1C[C@@]23C[C@@]1(O)CCC2[C@@]12C=CC(O)[C@](C)(C(=O)O1)C2C3C(=O)O (stereo partly specified),inactive: -1.24%,
CN1CCN(c2ncc3ncc(=O)n(-c4ccccc4)c3n2)CC1,inactive: -1.9%,
COc1ccc(CN2CC[C@H]3C=CC[C@@H](C(=O)NCc4cccnc4)[C@H]3C2=O)cc1OC,inactive: 7.32%,
COc1ccc(CNc2cc(-c3cccc(C#N)c3)ncn2)c(OC)c1,inactive: -18.9%,
Cc1ccc(-c2ccnc(-n3ncc(C(=O)N4CCCCC4c4cccnc4)c3C3CC3)n2)o1 (stereo unspecified),inactive: 9.3%,
C=C1/C(=C\C=C2/CCC[C@]3(C)C([C@H](C)CCCC(C)(C)O)CC[C@@H]23)C[C@@H](O)C[C@@H]1O (stereo partly specified),inactive: 16.2% [at 15.3 µM],
CS(=O)(=O)c1ccc(Cn2c3c(c4cc(F)cc(F)c42)CCC[C@H]3CC(=O)O)cc1,inactive: -11.5%,
CCCCC(C)(C)[C@H](O)/C=C/[C@H]1[C@H](O)CC(=O)[C@@H]1C/C=C\CCCC(=O)O,inactive: -16.9% [at 15.3 µM],
Clc1nccc2c1ccc1ccccc12,inactive: 19.6% [at 75.8 µM],
CC1(O)CC2C(CC1O)C2(C)C (stereo unspecified),inactive: -10%,
CN(C)c1ncnc2ccc(-c3ccccc3C#N)cc12,inactive: 29.8%,
O=C(O)COC(=O)Cc1ccccc1Nc1c(Cl)cccc1Cl,inactive: 17.4% [at 75.8 µM],
OC1(c2ccc(Cl)c(C(F)(F)F)c2)CCN(CCCC(c2ccc(F)cc2)c2ccc(F)cc2)CC1,inactive: 7.31%,
C[C@@H]1C[C@H]2[C@@H]3CCC4=CC(=O)C=C[C@]4(C)[C@@]3(F)[C@@H](O)C[C@]2(C)[C@@]1(O)C(=O)CO,inactive: 35.2%,
c1ccc(CN2CCC3(CCc4ccccc43)CC2)cc1,inactive,
CC(CC(c1ccccc1)c1ccccc1)NC(C)(C)C (stereo unspecified),inactive: 22.5%,

Compound,"activity change, negative = inhibition",Potency
Cc1c(C(=O)N2CCCCCC2)sc2ncnc(NCC3CCCO3)c12 (stereo unspecified),inactive: 9.68%,
COCC(=O)N1CCC2(CC1)CN(c1ccncc1)C2,inactive: 5.94%,
OCC1O[C@@H](OC2C(O)C(CO)O[C@@]2(CO)O[C@@H]2OC(CO)C(O)C(O)C2O)C(O)C(O)C1O (stereo partly specified),inactive: 23.7%,
Cc1cc2nc(N3CCCN(Cc4cccn4-c4ncccn4)CC3)nc(C)c2cc1C,inactive: 5.09%,
CCOC(=O)C1CCCN(C(=O)c2cnn(-c3ncc4c(n3)-c3ccccc3CCC4)c2C2CC2)C1 (stereo unspecified),inactive: 6.27%,
Cc1noc(C)c1-c1ccc2ncnc(N3CCC(C(=O)O)CC3)c2c1,inactive: 1.48%,
Clc1ccccc1-c1nccc(-n2ccnc2)n1,inactive: 28.9%,
CC12CCC(CC1)C(C)(C)O2,inactive,
Cc1cccc(CNc2ncnc3ccc(-c4ccc(C(=O)N(C)C)cc4)cc23)c1,inactive: 11.4%,
CC(=O)Nc1ncc([N+](=O)[O-])s1,inactive: 18.9%,
CN(C)C1C(=O)C(C(N)=O)=C(O)[C@@]2(O)C(=O)C3=C(O)c4c(O)ccc(Cl)c4C(O)[C@H]3C[C@@H]12 (stereo partly specified),inactive: -4.48%,
O=S(=O)(NCc1nnc2n1CCN(Cc1ccccc1Cl)CC2)c1ccccc1,inactive: 14.4%,
CS(=O)(=O)Nc1cccc(-c2cc(NCc3cccs3)ncn2)c1,inactive: 11.7%,
Cc1cc2nc3c(=O)[nH]c(=O)nc-3n(CC(O)C(O)C(O)CO)c2cc1C (stereo unspecified),inactive: 444%,
CO[C@@]1(NC(=O)CSC[C@@H](N)C(=O)O)C(=O)N2C(C(=O)O)=C(CSc3nnnn3C)CS[C@@H]21,inactive: -21.9%,
COc1c(O)cccc1O,inactive: 27.7%,
CCC1CN2CCc3cc(OC)c(OC)cc3C2CC1CC1NCCc2cc(OC)c(OC)cc21 (stereo unspecified),inactive: 428%,
Cc1ccccc1C1(CC(=O)N2CCC[C@H]2C(N)=O)CC(=O)N(C2CCCC2)C1=O (stereo partly specified),inactive: 11.8%,
NCCNC(=O)c1ncsc1-c1cccc(F)c1,inactive: -0.267% [at 75.8 µM],
Cc1cc(CC(=O)O)n(C)c1C(=O)c1ccc(Cl)cc1,inactive,
COc1ccccc1N1CCN(CCCCNS(=O)(=O)c2cccc3c(N(C)C)cccc23)CC1,inactive: 1.71% [at 75.8 µM],
Cc1ccc(C(=O)O[C@H](C(=O)O)[C@@H](OC(=O)c2ccc(C)cc2)C(=O)O)cc1 (tested in a mixture with another compound),inactive: -2.81% [at 75.8 µM],

Compound,"activity change, negative = inhibition",Potency
O=C(O)C1=CCCNC1,inactive,
Cc1ccccc1C(=O)NC(C)c1nnc2n1CCN(Cc1ccccc1F)CC2 (stereo unspecified),inactive: -2.79%,
COc1ccc2cc(C(C)C(=O)O)ccc2c1 (stereo unspecified),inactive: 10.3%,
COC(=O)C1N[C@@H]([C@@H](NC(=O)COc2ccccc2)C(=O)Nc2ccc(OC)cc2)SC1(C)C (stereo partly specified),inactive: 13.8%,
COc1ccc(-c2nc3cnc(Nc4cccc(OC)c4)nc3n(Cc3cccs3)c2=O)cc1,,active: 100 µM
O=S(=O)(O)c1ccc2nc(-c3ccccc3)[nH]c2c1,inactive: 20.8%,
CC(=O)N1C[C@H](O)C[C@H]1C(=O)O,inactive: 5.96%,
Cc1nc2sccn2c1CN1CCOc2ccc(CN3C[C@@H](C)O[C@@H](C)C3)cc2C1,inactive: 15%,
CN(C)C(=O)Nc1ccc(Cl)c(Cl)c1,inactive: 19.6%,
O=C1c2ccccc2CN2C(=O)c3ccccc3CN12,inactive: 14%,
Cc1noc(C)c1-c1nc(NCc2cccnc2)c2ccccc2n1,inactive: -7.1%,
O=c1cc(-c2ccc(O)cc2)oc2cccc(O)c12,inactive: 2.73%,
COc1ccc(C(=O)N2CCC3(CC2)CN(C(=O)Nc2ccccc2)C3)cc1,inactive: 18.5%,
Cc1noc(C)c1C(=O)N1CCC2(CC1)CN(c1ccccn1)C2,inactive: -5.76%,
CC#CCOC(=O)C1=CCCN(C)C1,inactive,
CC(C)(C)c1onc(OCP(=O)(O)O)c1CC(N)C(=O)O (stereo unspecified),inactive,
COc1ccc(CN2CCOc3ccc(CN4CCC(O)CC4)cc3C2)c(OC)c1OC,inactive: -0.0331%,
CC(=O)N1CCC[C@@]2(CCN(Cc3ccccc3)C2)C1,inactive: 3.56%,
Cc1cc(-c2ccnc(-n3ncc(C(=O)NCC4COCCO4)c3C3CC3)n2)c(C)s1 (stereo unspecified),inactive: -7.72%,
O=C(NCc1nnc2n1CCN(Cc1cccc(Cl)c1)CC2)c1cccc(F)c1,inactive: -1.72%,
COc1ccccc1-c1ccc2ncnc(NCCNC(C)=O)c2c1,inactive: 4.26%,
NC1(C(=O)O)CC(C(=O)O)C1 (stereo unspecified),inactive,

Compound,"activity change, negative = inhibition",Potency
C[C@H](CCC(=O)O)[C@H]1CC[C@H]2[C@@H]3CC[C@@H]4C[C@H](O)CC[C@]4(C)[C@H]3C[C@H](O)[C@]12C,inactive: 16.8%,
NC(=NCc1ccc(Cl)cc1Cl)NC(=O)c1nc(Cl)c(N)nc1N,inactive,
COc1ccccc1-c1nc(NCCN2CCOCC2)c2ccccc2n1,inactive: 8.46%,
O=C(O)C1CCCN1 (stereo unspecified),inactive: 8.11%,
Cc1ccc2c(C)nc(N3CCCC(C(=O)NC(C)(C)CO)C3)nc2c1 (stereo unspecified),inactive: -10.3%,
CC1Cc2ccccc2N1NC(=O)c1ccc(Cl)c(S(N)(=O)=O)c1 (stereo unspecified),inactive,
CC(C)(C)[C@]1(O)CCN2C[C@H]3c4ccccc4CCc4cccc(c43)[C@@H]2C1,inactive,
Nc1nc2[nH]c(=O)cnc2c(=O)[nH]1,inactive: -1.27% [at 75.8 µM],
NC(=O)[C@H]1O[C@@H](O)[C@H](O)[C@@H](O)[C@@H]1O,inactive: 10.7%,
O=S(=O)(c1ccccc1)N1CCC[C@@]2(CCN(C(c3ccccc3)c3ccccc3)C2)C1,inactive: 15.4%,
[N-]=[N+]=NCCN1CCN(Cc2ccccc2)CCC1=O,inactive: -7.47%,
O=S1(=O)CCO[C@H]2CCCC[C@@H]2N1Cc1ccccc1F,inactive: 5.08%,
CCN(CC)CCNC(=O)c1cnn(-c2ncc3c(n2)-c2ccc(OC)cc2CC3)c1C,inactive: 4.53%,
C=C(C)C(=O)OC[C@@H]1CCC[N@+]2(C)CCCCC12 (stereo partly specified),inactive: 27.4%,
CCOc1ccccc1O[C@H](c1ccccc1)[C@H]1CNCCO1,inactive: 12.3%,
OCC1O[C@H](O)C(Cl)C(O)C1O (stereo partly specified),inactive: 10.9% [at 75.8 µM],
Cn1cnnc1Sc1ccc(CN2CCOc3ccc(C4=Cc5ccccc5C4)cc3C2)o1,inactive: -13%,
N[C@H](Cn1ccc(=O)c(O)c1)C(=O)O,inactive: 0.519%,
O=C(O)C1Cc2c([nH]c3ccccc23)C(c2coc3ccccc3c2=O)N1 (stereo unspecified),inactive: -5.79%,
CCC(=O)c1c(O)cc(O)cc1O,inactive: 18.2%,
N#Cc1cccc(-c2nccc(NCc3cccs3)n2)c1,inactive: -19.3%,
COCCn1c(=O)c(C)nc2cnc(N3CCNCC3)nc21,inactive: 23.6%,

Compound,"activity change, negative = inhibition",Potency
COc1ccc(Oc2ncc3nc(-c4cccs4)c(=O)n(-c4ccccc4)c3n2)cc1,inactive: 0.137%,
C=CC(C)(O)CC1[C@@]2(C)CCCC(C)(C)C2CC[C@]1(C)O (stereo partly specified),inactive: -20.3%,
CNCC(O)c1cccc(O)c1 (stereo unspecified),inactive: 15.7%,
O=C(NCC(O)CO)c1c(I)c(C(=O)NCC(O)CO)c(I)c(N(CCO)C(=O)CO)c1I (stereo unspecified),inactive: 11.6% [at 75.8 µM],
CCOc1ccc(/C=C/C(=O)c2cccs2)cc1,inactive: 7.23%,
CCN(C)C(=O)Oc1cccc([C@H](C)N(C)C)c1,inactive: -3.99%,
Nc1ccc(S(=O)(=O)Nc2ccnn2-c2ccccc2)cc1,inactive,
CCNc1ncc2nc(C)c(=O)n(CCOC)c2n1,inactive: 11.4%,
COC(=O)C(c1ccccc1Cl)N1CCc2sccc2C1 (stereo unspecified),inactive,
Cc1ccccc1-c1nc(N2CCN(C)CC2)c2ccccc2n1,inactive: -1.62%,
CCCCCCCCCCCCCCCCCC(=O)OCC(C)O (stereo unspecified),inactive: -4.81%,
COc1cc(/C=C(\C#N)C(N)=O)cc(CSc2nc3ccccc3s2)c1O,inactive,
CC(=O)c1ccc(OCC(=O)N2CCCCC2)cc1,inactive: 5.82%,
COc1ccccc1-c1ccnc(-n2ncc(C(=O)N(C)CCc3ccccn3)c2C)n1,inactive: 19.1%,
CCOCC(O)COc1ccc(NC(=O)CC[S+](C)C)cc1 (stereo unspecified),inactive: -6.92%,
COc1cccc(Nc2ncc3nc(-c4cc(F)cc(F)c4)c(=O)n(CCC#N)c3n2)c1,inactive: -1.94%,
Nc1nc(NCCc2ccc(O)cc2)nc2nc(-c3ccco3)nn12,inactive,
CCCCCCCCCCCC(=O)N(CCO)CCO,inactive: -3.76%,
